Among all 46,000 compounds or so, about 60 (0.1%) were called active. Another 3% or so got no clear call; they are omitted. Calls come from the whole dose curve; as a rule, active = well fitted inhibition curve with a large enough effect; inconclusive = small, poorly fitted or top-dose-only effect; inactive = no such curve, though single readings can be large or run the other way. The list shows a part of the results.
assay: Primary qHTS assay for Inhibitors of ovarian cancer metastasis using an organotypic tumor microenvironment (TME) model.; note: nearly all actives have a fitted effect of over 65% in size;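 for activity change, negative = inhibition: plate controls were DMSO wells for no effect and tomatine positive control wells for full effect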; settings: SKOV3ip1-GFP adhesion/invasion on 3D omental model, fluorescence; series mostly up to 45.8 µM; activity change, negative = inhibition: at the top concentration
Summary of the method: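 Primary human omental fibroblast/mesothelial 3D culture pre-formed 48 h. SKOV3ip1-GFP cells added with compounds (0.36-46 umol/L), incubated 2 h RT/16 h 37 C, fixed; GFP cells quantified at 488/509 nm.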

outcome, inactive:
Cn1c(=O)c(=O)n(C)c2cc(S(=O)(=O)CCC(=O)Nc3ccc(F)cc3)ccc21
CCOC(=O)c1cc(OC(=O)c2ccc(C)cc2)n(-c2ccccc2)n1
Cc1ccccc1Cn1c2ccccc2c2cnn(CC(=O)NCCc3ccccc3)c(=O)c21
COc1cc(-c2noc(CCC(=O)Nc3cc(C)ccc3C)n2)cc(OC)c1OC
COc1ccc(NC(=O)C(Cc2ccccc2)n2cccc2)cc1OC (stereo not drawn)
Cc1ccc(OC(=O)CSc2nnc(-c3cccs3)o2)cc1
Cc1cc(S(=O)(=O)NCC(c2ccco2)S(=O)(=O)c2ccccc2)ccc1F (stereo not drawn)
Cc1cc(C)c(NC(=O)Cn2nnc(-c3ccccc3)n2)c(C)c1
O=C(CN1CCCN(Cc2ccccc2Cl)S1(=O)=O)NCc1ccccc1
O=C(CSc1nc2c([nH]c3ccccc32)c(=O)n1-c1ccc(Cl)cc1)N1CCOCC1
CC1=C(C(=O)Nc2ccccc2)C(CC(C)C)n2nc(SCc3ccccc3C)nc2N1 (stereo not drawn)
CCc1nn(C(CC)C(=O)NCc2ccc(F)cc2)c(=O)c2cc3occc3n12 (stereo not drawn)
Cc1nc(-c2ccc(Cl)cc2)sc1CCNC(=O)c1cccs1
Cc1cccc(NC(=O)CSc2nncn2C)c1
Cc1ccc(NC(=O)CSc2nc(-c3ccco3)nc3cc(=O)[nH]n23)cc1C

Activity change, negative = inhibition, inactive:
CCOc1ccccc1C(=O)Nc1c(C(=O)Nc2ccc(F)cc2)oc2ccccc12 -9.88%
CCc1ccc(S(=O)(=O)c2cn(C)c3cc(N4CCC(C)CC4)c(F)cc3c2=O)cc1 -18.4%
CCOC(=O)c1ccc(NC(=O)c2c(NCc3cccs3)sc3c2CCCC3)cc1 0.163%
Cn1c(=O)n(C)c2cc(N3CCOCC3)c(NC(=O)c3ccccc3Br)cc21 2.11%
Cc1ccc(C(=O)Nc2nnc(S(=O)(=O)N3c4ccccc4CC3C)s2)cc1 (stereo not drawn) -5.11%
COc1ccc(NC(=O)c2ccco2)cc1NC(=O)COc1ccccc1 5.01%
CCOc1ccc(NC(=O)c2cnn3c2NC(c2cccc(OC)c2)=CC3c2ccccc2)cc1 (stereo not drawn) -0.328%
Cc1ccc(C2=NN(CC(=O)NCCC(C)C)C(=O)CC2)cc1 -9.7%
COc1ccc(OC(=O)c2nc(SCc3ccc(F)cc3)ncc2Cl)cc1 6.08%
O=c1c(S(=O)(=O)c2ccccc2)cn(Cc2cccc(F)c2)c2cc(N3CCOCC3)c(F)cc12 5.22%
CC(=O)Nc1ccc(NC(=O)CSc2nc3ccccc3nc2N2CCC(C)CC2)cc1 -13.7%
COc1cccc(CNC(=O)c2cc(S(=O)(=O)N3CCCCC3)cn2C)c1 -2.03%
COc1ccc(CNC(=O)CN2C(=O)CSc3ccc(S(=O)(=O)N4CCOCC4)cc32)c(OC)c1 9.77%
Cc1ccc(-n2ncc(C(=O)NCCc3c[nH]c4ccccc34)c2C2CCN(C(=O)OC(C)(C)C)CC2)cc1C -1.32%
COc1ccc(NC(=O)CCS(=O)(=O)c2ccc3nc(C)sc3c2)cc1Cl -2.06%
CCC(=O)Nc1ccc(CC)cc1-c1nc2ccccc2n(Cc2ccccc2)c1=O 4.32%
CC(NC(=O)CN(c1ccc(Cl)cc1Cl)S(=O)(=O)c1ccccc1)c1ccccc1 (stereo not drawn) -4.08%
O=C(Cn1c(-c2cccs2)cc2cc(Cl)ccc21)N1CCN(c2ccccc2F)CC1 4.41%
CNC(=O)c1c(NC(=O)/C=C/c2ccccc2Cl)sc2c1CCC2 -22.1%
Cc1ccccc1C(=O)N(Cc1nc(-c2ccc(Cl)cc2)no1)C(C)C -4.04%
CCn1c(=O)c2sccc2n2c(CCC(=O)N3CCN(c4ccc(C(C)=O)cc4)CC3)nnc12 -12.4%
CCOC(=O)C(C)NC(=O)C1CCN(c2ncnc3c2nc2n3CCCCC2)CC1 (stereo not drawn) 1.02%
COc1ccc(F)cc1S(=O)(=O)Nc1cccc(-c2ccc(N3CCCCCC3)nn2)c1 1.12%
CCOc1ccccc1NC(=O)Cn1c(=O)n(Cc2ccccc2)c(=O)c2cccnc21 0.319%
O=C(Cn1ccc2cc(S(=O)(=O)N3CCCCC3)ccc21)NCc1cccc(Cl)c1 5.82%
CC1CCC(NC(=O)c2cc3c(Cl)nc4ccccc4c3s2)CC1 (stereo not drawn) -5.14%
CC(C)N(Cc1ccccc1)C(=O)Cn1ncc2c([nH]c3ccccc32)c1=O 14.4%
CCc1nnc(NC(=O)C(=O)c2cc(C)n(-c3ccccc3)c2C)s1 2.01%
Cc1cccn2c(=O)cc(COc3cccc(NC(=O)COc4ccc(F)cc4)c3)nc12 1.07%
O=S(=O)(NCC(c1ccco1)N1CCOCC1)c1cc(F)ccc1F (stereo not drawn) 3.13%
Cc1cccc(NC(=O)CSc2c(C)cnc3c2c(=O)n(C)c(=O)n3C)c1C -2.87%
Cc1ccc(-c2nonc2NC(=O)c2ccc(F)cc2)cc1C -9.42%
Cc1cc(C)cc(NC(=O)C2CCCN(C(=O)c3cnn(-c4ccccc4)c3-n3cccc3)C2)c1 (stereo not drawn) 7.38%
CCC1CCCCN1CC(=O)Nc1cc(C)c2c(=O)oc3ccccc3c2n1 (stereo not drawn) 14.4%
O=C(c1cc2c(s1)-c1ccccc1OC2)N1CCN(c2ccccc2)CC1 -11.7%
Cc1cc(C(=O)N2CCN(c3cccc(Cl)c3)CC2)n(-c2ccccc2)n1 4.64%
CCCOc1ccc(C(=O)N(Cc2ccc(N(C)C)cc2)CC2CCCO2)cc1 (stereo not drawn) 0.445%
O=C(CCc1ccccc1)N(Cc1cccnc1)c1nc2c(F)cccc2s1 -10.4%
COc1cc(C(=O)NCC(c2ccco2)S(=O)(=O)c2ccccc2)cc(OC)c1OC (stereo not drawn) -4.37%
Cc1ccc(Nc2c(-c3ccc(O)cc3)nc3cccc(C)n23)cc1 -26.6%
Cc1ccc(NC(=O)Cc2csc(C)n2)c(C)c1 3.38%
CCCN(CCC)CCCNC(=O)Cn1ncc2c3ccccc3n(Cc3ccccc3)c2c1=O -1.76%
Cc1ccc(C(=O)Nc2ccc(OCc3cc(=O)n4c(C)csc4n3)cc2)cc1 0.615%
O=C(c1ccc2c(c1)N(Cc1ccccc1)C(=O)c1ccccc1S2(=O)=O)N1CCCCCC1 -9.91%
Cc1ccc(S(=O)(=O)c2c(Nc3cc(F)ccc3F)sc(C(=O)c3ccc(F)cc3)c2N)cc1 58.7%
CC(=O)Nc1nonc1-c1nnc(SCC(=O)Nc2cc(C)cc(C)c2)n1-c1ccccc1 -13.6%
CCN(CC)CCN(C(=O)c1ccco1)c1nc2ccc(Br)cc2s1 -4.35%
CCCOc1ccc(-c2nc(SC)[nH]c(=O)c2C#N)cc1OC -0.49%

From PubChem BioAssay AID1963576 (National Center for Advancing Translational Sciences (NCATS), 2024)
